# Publication PMC4336329 (PLoS ONE, 2015)
# Hit rate of the full screen: of about 310,000 compounds, about 14,000 (4.5%) showed an effect of 50% or more. The effect is printed as a negative number. Some of the results follow.
# Biological target: human ether-à-go-go-related gene (hERG) potassium channel (human, UniProt Q12809)
# Test: primary screen, population patch clamp on CHO cells stably expressing hERG
# 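Further: peak tail current of the secondary pulse compared with the same well before compound.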
# Chain of human ether-à-go-go-related gene (hERG) potassium channel (Q12809 whole entry, looked up): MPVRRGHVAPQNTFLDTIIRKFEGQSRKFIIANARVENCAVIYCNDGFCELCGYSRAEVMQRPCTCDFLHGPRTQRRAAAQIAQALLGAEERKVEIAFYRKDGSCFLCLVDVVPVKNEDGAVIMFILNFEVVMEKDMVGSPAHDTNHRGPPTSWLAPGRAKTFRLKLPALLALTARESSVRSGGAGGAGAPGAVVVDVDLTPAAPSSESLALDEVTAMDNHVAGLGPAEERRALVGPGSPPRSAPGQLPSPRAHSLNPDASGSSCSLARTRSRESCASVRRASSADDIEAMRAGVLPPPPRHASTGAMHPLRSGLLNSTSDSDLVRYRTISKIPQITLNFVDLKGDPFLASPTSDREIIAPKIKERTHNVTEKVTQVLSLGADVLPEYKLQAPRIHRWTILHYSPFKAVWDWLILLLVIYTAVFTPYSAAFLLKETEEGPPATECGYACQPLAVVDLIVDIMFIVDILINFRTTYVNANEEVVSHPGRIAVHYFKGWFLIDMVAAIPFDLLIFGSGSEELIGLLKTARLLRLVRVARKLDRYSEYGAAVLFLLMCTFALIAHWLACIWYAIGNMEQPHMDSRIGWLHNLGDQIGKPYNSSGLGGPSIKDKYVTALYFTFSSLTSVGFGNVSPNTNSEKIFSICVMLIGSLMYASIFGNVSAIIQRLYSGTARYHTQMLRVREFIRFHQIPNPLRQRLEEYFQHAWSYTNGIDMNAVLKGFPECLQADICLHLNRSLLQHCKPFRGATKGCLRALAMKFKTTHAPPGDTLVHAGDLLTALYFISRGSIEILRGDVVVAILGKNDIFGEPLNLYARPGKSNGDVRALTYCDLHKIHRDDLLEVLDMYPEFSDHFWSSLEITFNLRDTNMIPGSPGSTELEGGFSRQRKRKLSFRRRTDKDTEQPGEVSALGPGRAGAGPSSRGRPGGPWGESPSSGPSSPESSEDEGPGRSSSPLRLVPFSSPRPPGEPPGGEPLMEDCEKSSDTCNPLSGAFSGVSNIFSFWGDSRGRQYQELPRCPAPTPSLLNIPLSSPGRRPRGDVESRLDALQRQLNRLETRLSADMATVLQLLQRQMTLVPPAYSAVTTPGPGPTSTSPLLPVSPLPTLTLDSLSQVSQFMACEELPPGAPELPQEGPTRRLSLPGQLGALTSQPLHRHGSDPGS
row,SMILES,"hERG current change (%, negative = inhibition) at 10uM"
1,CC1CCCC(C)N1C(=O)COC(=O)CCc1nc2ccccc2c(=O)[nH]1 (stereo not shown),-1.29%
2,N#Cc1cc(-c2cccc(Cl)c2)c[nH]c1=O,12.8%
3,COCCN(C(=O)CCC(=O)Nc1nccs1)C(C(=O)NC(C)(C)C)c1ccc(C)cc1 (stereo not shown),5.03%
4,Cc1cccc(NC(=O)Nc2cnccn2)c1C,14.9%
5,O=C(CCSCc1ccc(Cl)cc1)NCCc1ccccc1,-5.27%
6,COc1ccc(S(=O)(=O)N(C)CC(=O)NCc2ccco2)cc1Cl,-1.3%
7,CCOc1ccc(-c2c(C)n(-c3ccc(OCC)cc3)c3[n+]2CCCCC3)cc1.[O-][Cl+3]([O-])([O-])[O-],-77.7%
8,O=C(Nc1ccc(F)cc1F)c1cccnc1Oc1cccc(C(F)(F)F)c1,0.51%
9,CCN(CC)CC(C)OC(=O)COc1ccc(OC)cc1.Cl (stereo not shown),13.1%
10,CN(Cc1ccccc1)C(=O)CN1C(=O)c2ccc([N+](=O)[O-])cc2C1=O,-17.9%
11,O=C(N/N=C/c1c[nH]c2ccccc12)c1ccn(Cc2ccc(Cl)cc2)n1,3.88%
12,Cn1c(=O)c(C(=O)Nc2ncccc2O)c(O)c2ccccc21,11%
13,Cc1cccc(C)c1Nc1nnc(SCc2cc([N+](=O)[O-])cc3c2OCOC3)s1,-21%
14,Nc1c(N(CCO)C(=O)/C=C/c2ccco2)c(=O)[nH]c(=O)n1Cc1ccccc1,10.1%
15,O=C1/C(=C/c2ccc(O)cc2)SC(=S)N1Cc1cccnc1,16.4%
16,O=C(c1cccn2c(=O)c3ccccc3nc12)N1CCN(c2ccccn2)CC1,-53%
17,O=C(NC1CCCCC1)C1CN(S(=O)(=O)c2ccccc2)CCN1S(=O)(=O)c1ccccc1 (stereo not shown),-39.1%
18,CCSc1nnc(NC(=O)C2Cc3ccccc3CN2S(=O)(=O)CC)s1 (stereo not shown),-2.13%
19,CCC(C)(NC=O)C(=O)Nc1c(C)cccc1C (stereo not shown),4.21%
20,Cc1csc(NC(=O)c2ccc(S(=O)(=O)N3CCCC3)cc2)n1,-16.5%
21,COc1ccc(-n2c(SCC(=O)O)nc3sc4c(c3c2=O)CCC4)cc1,18.9%
22,CC(=O)Nc1ccc(N2C(C(C)=O)=NN(c3ccccc3)C2c2cccs2)cc1 (stereo not shown),18%

row,SMILES,"hERG current change (%, negative = inhibition) at 10uM"
1,Cc1ccccc1NC(=O)N1CCCC1C(=O)NCc1cccs1 (stereo not shown),2.01%
2,COc1ccc(NC(=O)N2CCC3(CC2)OCCO3)cc1OC,5.72%
3,COc1ccc(C(=O)NCCCN2CCCC2=O)cc1,3.54%
4,Cc1scc(C(=O)N/N=C/c2ccc([N+](=O)[O-])o2)c1C,15.4%
5,CC1=CC(C)(C)Nc2ccc(OC(=O)CCN3C(=O)c4ccccc4C3=O)cc21,0.14%
6,CCNS(=O)(=O)c1ccc(NC(=O)Nc2cccc(OC)c2)cc1,8.01%
7,COc1cc(C(=O)OC(C)CN2CCN(C)CC2)cc(OC)c1OC.Cl (stereo not shown),-6.51%
8,Cc1ccc(F)c(CNC(=O)C2CCC(=O)N(CCCN3CCCC3=O)C2)c1F (stereo not shown),15%
9,C=CCn1c(CCNC(=O)c2cccs2)nnc1SCC(=O)c1ccc(Cl)cc1,-38.5%
10,N=c1c2c3c(sc2ncn1Cc1ccco1)CCCCC3,-62%
11,COc1cccc(CN2CCN(C(=O)C3CCC(=O)N(C4CCCC4)C3)CC2)c1 (stereo not shown),3.17%
12,N#CCC(=O)Nc1ccc(C(F)(F)F)cc1N1CCOCC1,-1.13%
13,CCOC(=O)c1sc(NC(=O)C2CC(=O)N(c3ccccc3C)C2)nc1C (stereo not shown),-6.31%
14,COc1ccc(CN(C(=O)CNC(=O)c2ccco2)C(C(=O)NCC2CCCO2)c2ccccc2)cc1 (stereo not shown),-6.44%
15,Cc1cc2nc(N)sc2cc1[N+](=O)[O-],-0.00632%
16,CCc1ccccc1N1C(=O)[C@@H]2Cc3ccccc3CN2C1=O,5%
17,Cc1ccc(S(=O)(=O)NCCCCCC(=O)Nc2c(C)n(C)n(-c3ccccc3)c2=O)cc1,55.7%
18,CCOc1ccc(CN(C)CC(=O)NCc2ccc(F)cc2)cc1,-74%
19,Cc1snc(S(=O)(=O)/C(C#N)=N\Nc2ccccc2)c1C#N,8.45%
20,CC(C)(C)OC(=O)NCC1CCN(S(=O)(=O)Cc2ccccc2)CC1,13.8%
21,COc1ccc(OC)c(NC2c3ccccc3C(=O)N2c2cccnc2)c1 (stereo not shown),-7.07%
22,O=S(=O)(NC1CC(NS(=O)(=O)OCC(Cl)(Cl)Cl)C2CCCCC12)OCC(Cl)(Cl)Cl (stereo not shown),1.91%

row,SMILES,"hERG current change (%, negative = inhibition) at 10uM"
1,CCC(C)NC(=O)CNC(=S)N(Cc1ccccc1F)C1CCCCC1 (stereo not shown),24.9%
2,Cn1cccc1Cc1nnc(SCC(=O)N2CCc3ccccc32)n1CCc1ccccc1,-11.3%
3,Cc1ccc(CSc2nnc(Nc3ccc(C)cc3)s2)cc1,18%
4,N#CCCN1CCN(S(=O)(=O)c2ccc3c(c2)OCCCO3)CC1.O=C(O)C(=O)O,13.6%
5,Cc1nn(C(=O)c2nn(C)cc2Cl)c(C)c1Br,-6.27%
6,Cn1nnnc1SCc1csc(Nc2ccccc2)n1,-1.01%
7,CC(=O)C1=C(C)NC(SCC(=O)c2ccc(Cl)cc2)=C(C#N)C1c1ccco1 (stereo not shown),10.4%
8,Cc1cccc(OCC(=O)NCCNC(=O)c2ccco2)c1,-19%
9,COc1ccc(Br)cc1CN1CCN(C(=O)c2cccc(OC)c2OC)CC1.O=C(O)C(=O)O,0.939%
10,O=C(NCC(=O)N(Cc1ccc(F)cc1)C(C(=O)NC1CCCC1)c1ccco1)c1ccco1 (stereo not shown),-20.3%
11,COc1cccc(CNC(=O)C2CCN(S(=O)(=O)c3ccc(Br)s3)CC2)c1,-18.2%
12,O=C(/C=C/c1cccc(F)c1)OCC(=O)N1CCCc2ccccc21,-27.6%
13,CC(C#CCN1CCCCC1)OCCOCc1ccccc1.Cl (stereo not shown),6.25%
14,CCn1c(CNC(=O)c2cccc(C)c2)nnc1SCC(=O)Nc1cccc(OC)c1,-27.6%
15,Cc1ccc(C(=O)NCC(=O)NCC(=O)OCC(=O)c2ccc(Br)cc2)cc1,7.3%
16,Cc1nnc(SCC(=O)NNC(=O)c2ccco2)s1,-21.4%
17,C/C(=N\NC(=S)NC(C)C)c1ccc2c(c1)OCCO2,-63.6%
18,COc1ccc(-n2cnnc2SCC(=O)NCc2cccs2)cc1,-10.1%
19,O=C(N1CCCCCC1)N1CCN(S(=O)(=O)N2CCCCC2)CC1,-4.84%
20,Cc1ccsc1C(=O)NCC(=O)OCc1ccccc1,1.22%
21,COC(=O)c1c(C(=O)OC)c2n(c1C)Cc1ccccc1C2,-11.2%
22,NS(=O)(=O)c1cccc(C(=O)NC2CCSc3ccccc32)c1 (stereo not shown),7.91%

row,SMILES,"hERG current change (%, negative = inhibition) at 10uM"
1,O=C(NNC(=O)c1sc2ccccc2c1Cl)Nc1ccc(Cl)cc1,-8.47%
2,Nn1c(SCC(=O)Nc2ccccc2F)nnc1-c1cccs1,-65.7%
3,CC(Nc1ccc2c(c1)OCCO2)C(=O)N1c2ccccc2CC1C (stereo not shown),-3.16%
4,COC(=O)c1cc(NS(=O)(=O)c2ccc(C(C)C)cc2)ccc1N1CCOCC1,-24.9%
5,Cl.OC(c1cc(C(F)(F)F)nc2c(C(F)(F)F)cccc12)C1CCCCN1 (stereo not shown),-12.4%
6,O=C(NC1CCN(Cc2ccccc2)CC1)c1cn(-c2ccccc2)nc1-c1cccnc1,-68%
7,Cn1cc(CN2CCN(CCc3ccccc3)C(CCO)C2)cn1 (stereo not shown),4.52%
8,CSc1cccc(NC(=O)C(C)C)c1,8.44%
9,O=c1[nH]c(-c2ccccn2)nc2ccccc12,-3.46%
10,CCCc1c(C)c2ccc(OCC(C)=O)cc2oc1=O,-12%
11,CC(Sc1nnc(-c2ccc(OC(F)F)cc2)n1N)C(=O)NCC1CCCO1 (stereo not shown),-24.2%
12,O=C(c1ccc([N+](=O)[O-])cc1)N1CCN(C(=O)c2ccco2)CC1,-47.4%
13,CN(C)c1ccc(-c2noc(C3CCN(S(=O)(=O)c4cccc(Cl)c4)CC3)n2)cc1,13%
14,CCCc1nnc(NC(=O)CCC(=O)N2CCN(Cc3cc(F)ccc3OC)CC2)s1,-11.3%
15,COc1cc([C@@H]2c3cc4c(cc3[C@@H](OC)[C@H]3COC(=O)[C@H]23)OCO4)cc(OC)c1O,9.75%
16,Cc1ccc(NC(=O)CSc2nc3ccccc3c3nc4ccccc4n23)cc1,7.99%
17,O=C(Nc1ccc(S(=O)(=O)Nc2ncccn2)cc1)c1cccc(Br)c1,16.5%
18,CCOC(=O)c1sc(NC(=O)CSc2nnc(C)s2)c(C(=O)OCC)c1C,-13.2%
19,COc1ccc([N+](=O)[O-])cc1NCc1ccccc1C,-7.14%
20,CC(=O)Oc1cccc(C(=O)Nc2cccc(C(=O)Nc3ccccc3C(=O)O)c2)c1,13.7%
21,Clc1ccc(-c2nnc3ccccn23)cc1,-17.9%
22,CCOc1cc(C(=O)Nc2nnc(S(=O)(=O)N3CCOCC3)s2)cc(OCC)c1OCC,12.3%
